# Laboratory results published in the supplement of paper PMC8728848.
# The list shows a part of the results.
# Legend:
# Test in all cases: glycan array binding signal (z-score within array); higher = stronger binding
# Settings in all cases: glycan notation: IUPAC condensed, linker removed
# Fuc(a1-2)Gal = target: Fuc(a1-2)Gal
# Summary of the method: (§1)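 From the Consortium for Functional Glycomics database, 3228 arrays were curated, keeping only those whose protein sequence was available. Binding is given as a within-array Z-score averaged across arrays sharing a protein sequence and across linkers. Negative Z-scores can be read as non-binding.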
# Fuc(a1-2)Gal(b1-3)GalNAc = target: Fuc(a1-2)Gal(b1-3)GalNAc
# Summary of the method: as §1
# [1] = target: Fuc(a1-2)Gal(b1-3)GalNAc(b1-3)Gal
# Summary of the method: as §1
# [2] = target: Fuc(a1-2)Gal(b1-3)GalNAc(b1-3)Gal(a1-4)Gal(b1-4)Glc
# Summary of the method: as §1
# [3] = target: Fuc(a1-2)Gal(b1-3)GalNAc(b1-4)[Neu5Ac(a2-3)]Gal(b1-4)Glc
# Summary of the method: as §1
# Fuc(a1-2)Gal(b1-3)GlcNAc = target: Fuc(a1-2)Gal(b1-3)GlcNAc
# Summary of the method: as §1
# [4] = target: Fuc(a1-2)Gal(b1-3)GlcNAc(b1-3)Gal(b1-4)Glc
# Summary of the method: as §1
# [5] = target: Fuc(a1-2)Gal(b1-3)[Fuc(a1-4)]GlcNAc
# Summary of the method: as §1
# Fuc(a1-2)Gal(b1-4)Glc = target: Fuc(a1-2)Gal(b1-4)Glc
# Summary of the method: as §1
# Fuc(a1-2)Gal(b1-4)GlcNAc = target: Fuc(a1-2)Gal(b1-4)GlcNAc
# Summary of the method: as §1
# [6] = target: Fuc(a1-2)Gal(b1-4)GlcNAc(b1-3)Gal(b1-4)GlcNAc
# Summary of the method: as §1
# [7] = target: Fuc(a1-2)Gal(b1-4)GlcNAc(b1-3)Gal(b1-4)GlcNAc(b1-3)Gal(b1-4)GlcNAc
# Summary of the method: as §1
# [8] = target: Fuc(a1-2)Gal(b1-4)[Fuc(a1-3)]GlcNAc
# Summary of the method: as §1
# [9] = target: Fuc(a1-2)Gal(b1-4)[Fuc(a1-3)]GlcNAc(b1-3)Gal(b1-4)[Fuc(a1-3)]GlcNAc
# Summary of the method: as §1
# [10] = target: Fuc(a1-2)Gal(b1-4)[Fuc(a1-3)]GlcNAc(b1-3)Gal(b1-4)[Fuc(a1-3)]GlcNAc(b1-3)Gal(b1-4)[Fuc(a1-3)]GlcNAc
# Summary of the method: as §1
# Fuc(a1-2)GlcNAc = target: Fuc(a1-2)GlcNAc
# Summary of the method: as §1
# Fuc(a1-2)[Gal(a1-3)]Gal = target: Fuc(a1-2)[Gal(a1-3)]Gal
# Summary of the method: as §1
# [11] = target: Fuc(a1-2)[Gal(a1-3)]Gal(b1-3)GlcNAc
# Summary of the method: as §1
# [12] = target: Fuc(a1-2)[Gal(a1-3)]Gal(b1-4)Glc
# Summary of the method: as §1
# [13] = target: Fuc(a1-2)[Gal(a1-3)]Gal(b1-4)GlcNAc
# Summary of the method: as §1
# [14] = target: Fuc(a1-2)[Gal(a1-3)]Gal(b1-4)[Fuc(a1-3)]GlcNAc
# Summary of the method: as §1
# [15] = target: Fuc(a1-2)[Gal(a1-4)]Gal(b1-4)GlcNAc
# Summary of the method: as §1
# [16] = target: Fuc(a1-2)[GalNAc(a1-3)]Gal
# Summary of the method: as §1
# [17] = target: Fuc(a1-2)[GalNAc(a1-3)]Gal(b1-3)GlcNAc
# Summary of the method: as §1
# [18] = target: Fuc(a1-2)[GalNAc(a1-3)]Gal(b1-4)Glc
# Summary of the method: as §1
# [19] = target: Fuc(a1-2)[GalNAc(a1-3)]Gal(b1-4)GlcNAc
# Summary of the method: as §1
# [20] = target: Fuc(a1-2)[GalNAc(a1-3)]Gal(b1-4)[Fuc(a1-3)]GlcNAc
# Summary of the method: as §1
# [21] = target: Fuc(a1-2)[GalNAc(a1-4)]Gal(b1-4)GlcNAc
# Summary of the method: as §1
# [22] = target: Fuc(a1-2)[GalNAc(b1-3)]Gal
# Summary of the method: as §1
# Fuc(a1-3)GlcNAc = target: Fuc(a1-3)GlcNAc
# Summary of the method: as §1
# [23] = target: Fuc(a1-3)[Gal(b1-4)]GlcNAc
# Summary of the method: as §1
# [24] = target: Fuc(a1-3)[Gal(b1-4)]GlcNAc(b1-4)Gal(b1-4)[Fuc(a1-3)]GlcNAc
# Summary of the method: as §1
# [25] = target: Fuc(a1-3)[Gal(b1-4)]GlcNAc(b1-4)Gal(b1-4)[Fuc(a1-3)]GlcNAc(b1-4)Gal(b1-4)[Fuc(a1-3)]GlcNAc
# Summary of the method: as §1
# [26] = target: Fuc(a1-3)[Gal3S(b1-4)]GlcNAc
# Summary of the method: as §1
# [27] = target: Fuc(a1-3)[GalNAc(b1-4)]GlcNAc
# Summary of the method: as §1
# Fuc(a1-4)GlcNAc = target: Fuc(a1-4)GlcNAc
# Summary of the method: as §1
# Fuc(b1-3)GlcNAc = target: Fuc(b1-3)GlcNAc
# Summary of the method: as §1
binder,measurement,setting,value
FaeGac (Escherichia coli) (protein) WMTGDFNGSVDIGGSITADDYRQKWEWKVGTGLNGFGNVLNDLTNGGTKLTITVTGNKPILLGRTKEAFATPVTGGVDGIPHIAFTDYEGASVVLRNPDGETNKKGLAYFVLPMKNAEGTKVGSVKVNASYAGVLGRGGVTSADGELLSLFADGLSSIFYGGLPRGSELSAGSAAAERTKLFGSLSRNDILGQIQRVNANITSLVDVAGSYRENMEYTDGTVVSAAYALGIANGQTIEATFNQAVTTSTQWSAPLNVAITYY,glycan array binding signal (z-score),Fuc(a1-2)Gal,0.274
same,glycan array binding signal (z-score),Fuc(a1-2)Gal(b1-3)GalNAc,-0.434
same,glycan array binding signal (z-score),[1],-0.645
same,glycan array binding signal (z-score),[2],-0.646
same,glycan array binding signal (z-score),[3],-0.138
same,glycan array binding signal (z-score),Fuc(a1-2)Gal(b1-3)GlcNAc,-0.654
same,glycan array binding signal (z-score),[4],-0.236
same,glycan array binding signal (z-score),[5],-0.249
same,glycan array binding signal (z-score),Fuc(a1-2)Gal(b1-4)Glc,-0.19
same,glycan array binding signal (z-score),Fuc(a1-2)Gal(b1-4)GlcNAc,-0.555
same,glycan array binding signal (z-score),[6],-0.23
same,glycan array binding signal (z-score),[7],-0.359
same,glycan array binding signal (z-score),[8],-0.349
same,glycan array binding signal (z-score),[9],-0.574
same,glycan array binding signal (z-score),[10],-0.161
same,glycan array binding signal (z-score),Fuc(a1-2)GlcNAc,-0.442
same,glycan array binding signal (z-score),Fuc(a1-2)[Gal(a1-3)]Gal,-0.026
same,glycan array binding signal (z-score),[11],-0.459
same,glycan array binding signal (z-score),[12],-0.644
same,glycan array binding signal (z-score),[13],-0.711
same,glycan array binding signal (z-score),[14],-0.559
same,glycan array binding signal (z-score),[15],0.157
same,glycan array binding signal (z-score),[16],-0.66
same,glycan array binding signal (z-score),[17],-0.599
same,glycan array binding signal (z-score),[18],-0.075
same,glycan array binding signal (z-score),[19],-0.577
same,glycan array binding signal (z-score),[20],-0.748
same,glycan array binding signal (z-score),[21],-0.633
same,glycan array binding signal (z-score),[22],-0.263
same,glycan array binding signal (z-score),Fuc(a1-3)GlcNAc,0.65
same,glycan array binding signal (z-score),[23],-0.319
same,glycan array binding signal (z-score),[24],0.063
same,glycan array binding signal (z-score),[25],-0.369
same,glycan array binding signal (z-score),[26],-0.548
same,glycan array binding signal (z-score),[27],-0.491
same,glycan array binding signal (z-score),Fuc(a1-4)GlcNAc,-0.524
same,glycan array binding signal (z-score),Fuc(b1-3)GlcNAc,-0.272
